# Measurements taken from PubChem BioAssay AID445 (National Center for Advancing Translational Sciences (NCATS), 2006).
# Hit rate of the full screen: of about 110,000 compounds, about 40 (0.04%) were called active. This list was built around the results that the source calls inconclusive (neither active nor inactive); the mix of calls is not that of the screen. Calls follow the shape of the dose curve; as a rule, active = well fitted curve in the direction sought with a large enough effect in the signal ratio (not every such curve was filed as active); inconclusive = small, poorly fitted or top-dose-only effect, or a change in a side signal; inactive = flat fitted curve, though single readings scatter; the % refers to the signal ratio.
# Test: IkB Signaling;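 also: 0% = basal untreated cells and 100% = reference inhibitor full response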
# Settings: ABC-DLBCL IkBa-CBG/CBR dual luciferase ratio (green luciferase fused to IkBa over red control in OCI-Ly3 lymphoma cells), 4 h; IkBa stabilization activation: at 57.1 µM (top of the series), scaled: untreated 0%, proteasome inhibitor 100% unless noted
# Summary of the method: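 Luminescence ratio of IκBα-fused green versus native red beetle luciferase in OCI-Ly3 cells, 4 h post-doxycycline with compound; red signal alone, scaled from basal (0%) to zero light (-100%), flagged nonspecific or cytotoxic effects.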
row,Compound,IkBa stabilization activation
1,COc1ccc(NC(=O)CSc2nnc(CNC(=O)c3ccco3)n2-c2ccccc2OC)cc1,inconclusive: 8.89% [signal inhibitor]
2,COc1ccc(S(=O)(=O)N2CCC(C(=O)Nc3ccccc3)CC2)cc1OC,inconclusive: 2.58% [signal inhibitor]
3,Cc1nn(-c2ccc(N3CCCCC3)nn2)c(C)c1CCC(=O)Nc1ccc(F)cc1F,inconclusive: 7.06% [signal inhibitor]
4,COc1cccc(-c2cc(C(=O)N3CCc4ccccc4C3)no2)c1,inconclusive: 8.1% [signal inhibitor]
5,Cc1nc2ccc(S(=O)(=O)CCC(=O)Nc3ccc(Cl)cc3)cc2s1,inconclusive: 15.8% [signal inhibitor]
6,CN1CCN(c2ccc(Cl)cc2NC(=O)c2cccc(S(=O)(=O)N(C)C)c2)CC1,inactive
7,O=C(CCC1CCCC1)N1CCN(S(=O)(=O)Cc2ccccc2)CC1,inactive
8,COC(=O)c1cc(-c2ccc3c(c2)OCO3)nc2ccccc12,inconclusive: 3.19% [signal inhibitor]
9,COc1ccc(S(=O)(=O)N2CCN(Cc3ccc(Cl)cc3)CC2)cc1,inconclusive: 2.69% [signal inhibitor]
10,CCC(Sc1nc2ccccc2s1)C(=O)Nc1nnc(C)s1 (centres undefined),inconclusive: 0.528% [signal inhibitor]
11,O=C(Nc1ccc2c(c1)OCO2)c1nn(-c2ccccc2)c(=O)c2ccccc12,inconclusive: 1.28% [signal inhibitor]
12,CC1(C)N=C(SCc2ccccc2Cl)c2ccccc2N1,inconclusive: 2.01% [signal inhibitor]
13,Cc1cccc(-c2noc(-c3cccnc3NCc3ccc(Cl)cc3)n2)c1,inconclusive: -1.13% [signal inhibitor]
14,COc1ccc(S(=O)(=O)Nc2ccc3oc4c(c3c2)CCCC4)cc1,inconclusive: -5.71% [signal inhibitor]
15,Cc1cc(Cl)ccc1OCC(=O)Nc1ccccc1N1CCOCC1,inconclusive: -2.06% [signal inhibitor]
16,O=C1CC(Sc2nnnn2C2CCCCC2)C(=O)N1c1ccccc1 (centres undefined),inactive
17,CCOc1ccccc1CNC(=O)c1ccc2c(c1)N(Cc1ccc(C)cc1)CCS2,inconclusive: 1.57% [signal inhibitor]
18,CC(=O)c1cccc(NC(=O)CSc2nc(=O)n(Cc3ccco3)c3c2CCC3)c1,inconclusive: 3.7% [signal inhibitor]
19,Cc1oc(-c2cccc(Cl)c2)nc1CS(=O)(=O)CC(=O)NC(C)CCc1ccccc1 (centres undefined),inconclusive: 2.79% [signal inhibitor]
20,CCCCN(CC)C(=O)c1nn(C)c2c1CSc1ccccc1-2,inactive
21,Cc1ccc(NC(=O)C2CCCN(C(=O)c3cnn(-c4ccc(F)cc4)c3-n3cccc3)C2)c(Cl)c1 (centres undefined),inconclusive: 1.95% [signal inhibitor]
22,Cn1nc(C(=O)Nc2cccnc2)c2ccccc2c1=O,inactive

row,Compound,IkBa stabilization activation
1,O=C(c1cccc(C(=O)N2CCN(c3ccccc3F)CC2)c1)N1CCN(c2ccccc2F)CC1,inconclusive: 0.605% [signal inhibitor]
2,O=C(CCC1N=C2c3ccccc3N=C(SCc3ccc(F)cc3)N2C1=O)NCCc1ccccc1 (centres undefined),inconclusive: 0.248% [signal inhibitor]
3,CCOc1ccc(NC(=O)c2c(NCc3cccc(OC)c3OC)sc3c2CCC3)cc1,inconclusive: 2.01% [signal inhibitor]
4,CCc1ccc(NC(=O)CN(c2ccc(Cl)cc2)S(=O)(=O)c2ccsc2C(=O)OC)cc1,inconclusive: 1.51% [signal inhibitor]
5,Nc1c(C(=O)Nc2ccccc2Cl)c2ccccn2c1C(=O)c1ccccc1,inconclusive: -1.47% [signal inhibitor]
6,Cc1ccc(C)c(CN2C(=O)C(O)(c3c(C)[nH]c4ccccc34)c3ccccc32)c1 (centres undefined),inconclusive: 0.324% [signal inhibitor]
7,O=C(C1CCCN(S(=O)(=O)c2cccc3nsnc23)C1)N1CCN(c2ccccc2)CC1 (centres undefined),inconclusive: 1.69% [signal inhibitor]
8,O=C1NCN(c2ccccc2)C12CCN(CCCC(c1ccc(F)cc1)c1ccc(F)cc1)CC2,inconclusive: -14.4% [signal inhibitor]
9,CCOC(=O)N1CCN(C(=O)CN(c2ccccc2F)S(=O)(=O)c2ccc(C)cc2)CC1,inconclusive: 4.37% [signal inhibitor]
10,Cc1cc(N2CCC(C)CC2)nc2ccc(NC(=O)Cc3c(F)cccc3Cl)cc12,inactive
11,CCOC(=O)c1noc2nc(C)n(CC(=O)NC(C)CC)c(=O)c12 (centres undefined),inactive
12,O=C(NCc1cccs1)c1ccc2c(c1)N(Cc1cccc(F)c1)C(=O)c1ccccc1S2,inconclusive: 2.16% [signal inhibitor]
13,CCOC(=O)c1c(C)[nH]c(C)c1S(=O)(=O)NCC(=O)NCc1cccc(Br)c1,inconclusive: -0.0508% [signal inhibitor]
14,Cc1ccccc1Cn1nc(C)c(NC(=O)c2cc3nc(-c4ccco4)cc(C(F)(F)F)n3n2)c1C,inconclusive: 10.4% [signal inhibitor]
15,O=C(Nc1ccc(Oc2ccccc2)cc1)c1ccc(F)c(S(=O)(=O)N2CCN(c3ccccc3F)CC2)c1,inconclusive: 0.731% [signal inhibitor]
16,COC(=O)c1sccc1NC(=O)c1c(C)noc1C,inactive
17,O=C(NCc1cccnc1)c1cn(CCc2ccccc2)nn1,inactive
18,COc1cccc(NC(=O)/C(C#N)=C/c2ccc(-c3ccc(C)cc3)o2)c1,inconclusive: 7.27% [signal inhibitor]
19,Cc1ccc(S(=O)(=O)Nc2cccc(-c3ccc(N4CCCC4)nn3)c2)c(C)c1,inactive
20,COc1ccc(C(=O)NCc2nc(-c3cccc(C)c3)no2)cc1OC,inactive
21,COc1cccc(C(=O)COC(=O)c2cc(-c3cccs3)nc3ccccc23)c1,inconclusive: 0.288% [signal inhibitor]
22,C(=N/Nc1ccccn1)/c1cccnc1,"inactive: -0.889% [at 11.4 µM, scaled: untreated 0%, proteasome inhibitor 100%]"
